Experimental data taken from PubChem BioAssay (NCATS).
This list was built around the results that the source calls inconclusive (neither active nor inactive); the mix of calls is not that of the screen. No potency is given beside an inconclusive call; the fits are too rough. Calls of active or inactive are those of the source. Calls follow the shape of the dose curve; as a rule, active = well fitted inhibition curve with a large enough effect; inconclusive = small, poorly fitted or top-dose-only effect; inactive = no such curve, though single readings can be large or run the other way.
% is scaled to controls: 0 for no effect and ±100 for the full control effect; potency is read from the fitted curve at half-maximal effect; tags tell the direction and shape of the fitted curve.

Experiment: Primary qHTS for small molecule stabilizers of the endoplasmic reticulum resident proteome: Secreted ER Calcium Modulated Protein (SERCaMP) assay (AID 1508630)
Conditions: SH-SY5Y GLuc-SERCaMP (Gaussia luciferase released on ER calcium loss) secretion, thapsigargin, luminescence; activity change, negative = inhibition: at 38.4 µM (top of the series) unless noted
Method in brief: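 GLuc-SERCaMP-expressing SH-SY5Y cells, pretreated 16 h with compound, are challenged with thapsigargin to empty ER calcium stores; after 4 h, coelenterazine is added directly to the medium and luminescence is imaged.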
In the case of O=C(O)c1cc(Oc2ccc([N+](=O)[O-])cc2)cc(Oc2ccc([N+](=O)[O-])cc2)c1, the Potency is reported as inconclusive [inhibitor, single point].
For CC(=O)N[C@@H](CSC/C=C(\C)CC/C=C(\C)CC/C=C(\C)CCC=C(C)C)C(=O)O, the Potency was “inactive”.
For COc1cccc(OC)c1-c1cc(C(=O)NC2(C(=O)O)C3CC4CC(C3)CC2C4)nn1-c1ccc(C(=O)N(C)CCCN(C)C)cc1C(C)C (configuration not stated), the Potency was inconclusive [inhibitor, full curve, poor fit].
In the case of CC(=O)C1(C)CC2(CC(C)(C)OC2=O)C(=O)O1 (configuration not stated), the “activity change, negative = inhibition” value is reported as inactive: -23%.
For CCn1c(=O)n(C2=C(CO)CN(CC3CCCCCCC3)CC2)c2ccccc21, the Potency was inconclusive [inhibitor, single point].
With CN(C)Cc1ccccc1-c1ccc2ncnc(NC3CC3)c2c1 the Potency was inconclusive [inhibitor, single point].
For C[C@@H](CN(C)C[C@H]1C(=O)O[C@@H]2C[C@@]3(C)CCC[C@]4(CO4)C3CC21)[C@H](O)c1ccccc1 (some centres not stated), the “activity change, negative = inhibition” value was inactive: -14.7%.
In the case of COC(=O)N1CCC[C@@]2(CCN(c3ccccn3)C2)C1, the “activity change, negative = inhibition” value is reported as inactive: 12.3%.
With CS(=O)(=O)Nc1c(O)ccc2c1CCC[C@H]2C1=NCCN1 the Potency was inconclusive [inhibitor, full curve].
With CCCNC(=O)[C@H]1O[C@@H]1C(=O)N[C@H](C(=O)N1CCC[C@H]1C(=O)OC)[C@@H](C)CC the Potency was inconclusive [inhibitor, partial curve].
With CCCCC/C=C/C=C1/C(=O)C=C[C@@H]1C/C=C\CCCC(=O)O the activity change, negative = inhibition was inactive: -9.18% [at 3.88 µM].
For CC(=O)NC1C(OC2OC(CC(O)C3OC([N+]4=CCC(=O)NC4=O)C(O)C3O)C(O)C(O)C2NC(=O)/C=C/CCCCCCCCC(C)C)OC(CO)C(O)C1O (configuration not stated), the Potency was active: 1 µM.
In the case of CCCCC[C@H](O)CC[C@H]1[C@H](O)CC(=O)[C@@H]1CCCCCCC(=O)O, the activity change, negative = inhibition is reported as inactive: -15% [at 3.88 µM].
In the case of Cc1ccc(CC2(O)CCN(CCOc3ccc(O)cc3)CC2)cc1, the Potency is reported as inconclusive [inhibitor, partial curve, poor fit].
For CC(=Nc1ccccc1N)c1c(C)cc(=O)n(O)c1O, the Potency was inconclusive [inhibitor, partial curve, poor fit].
With C=C1O[C@@](CO)(n2cnc3c(N)ncnc32)[C@H](O)[C@@H]1O the Potency was inconclusive [inhibitor, full curve, poor fit].
In the case of O=C(O)[C@@H]1CN[C@@H](C(=O)O)C1, the “activity change, negative = inhibition” value is reported as inactive: -22.5%.
With COc1cccc2c(=O)c3ccoc3n(C)c12 the “activity change, negative = inhibition” value was inactive: 17.8%.
With O=C(O)c1ccccc1-c1oc2cc(O)ccc2c(=O)c1Oc1ccccc1 the “activity change, negative = inhibition” value was inactive: 11%.
With C[C@@](N)(C(=O)O)c1ccc(S(=O)(=O)O)cc1 the “activity change, negative = inhibition” value was inactive: 3%.
In the case of COc1ccc(-c2nc3cnc(N4CCN(C)CC4)nc3n(C3CC3)c2=O)cc1, the Potency is reported as inconclusive [inhibitor, partial curve, poor fit].
In the case of Cn1c(=O)cnc2cnc(Oc3ccccc3)nc21, the “activity change, negative = inhibition” value is reported as inactive: 24.4%.
In the case of COC(=O)/C=C/c1cc(O)ccc1O, the “activity change, negative = inhibition” value is reported as inactive: -17.7%.
With Cn1cccc1C(=O)N1CCC2(CCN(C(=O)Nc3cccc(C#N)c3)CC2)CC1 the “activity change, negative = inhibition” value was inactive: -19.9%.
For NCC(O)COc1cccc2ccccc12 (configuration not stated), the “activity change, negative = inhibition” value was inactive: -18.2%.
In the case of NC(=O)c1sc(-c2ccsc2)cc1N, the Potency is reported as inconclusive [inhibitor, full curve, poor fit].
For O=c1[nH]cnc2ccccc12, the Potency was inconclusive [inhibitor, partial curve, poor fit].
For O=C1C=CC2=C3c4cc(O)c(O)cc4C[C@@]3(O)COC2=C1, the Potency was inconclusive [inhibitor, partial curve, poor fit].
For C[C@H]1OC(=O)CC[C@@H]2[C@]1(C)CCC1[C@@]2(C)CC[C@@]2(C)C3CC(C)(C)CC[C@]3(CO)CC[C@]12C (some centres not stated), the “activity change, negative = inhibition” value was inactive: -10.2%.
With N#Cc1ccc(CN2CCCC3(CCNCC3)C2)cc1 the Potency was inconclusive [inhibitor, full curve].
For COC(=O)[C@H](CCCN=C(N)N)NC(=O)CCCc1c(-c2ccccc2)[nH]c2c(F)cc(F)cc12, the Potency was inconclusive [inhibitor, partial curve, poor fit].
In the case of O=c1[nH]cnc2c1ncn2C1O[C@H](CO)[C@@H](O)[C@H]1O (some centres not stated), the Potency is reported as inconclusive [inhibitor, partial curve, poor fit].
